Experimental findings from PubChem BioAssay AID1347073 (National Center for Advancing Translational Sciences (NCATS), 2019) are described below.

In all, about 45,000 compounds went through this assay and about 200 (0.44%) were called active. About 7% were inconclusive and are not listed. Calls follow the shape of the dose curve; as a rule, active = well fitted activation curve with a large enough effect; inconclusive = small, poorly fitted or top-dose-only effect; inactive = no such curve, though single readings can be large or run the other way. Some of the results follow.

The nature of this experiment: qHTS of TDP-43 Inhibitors: NCGC Sytravon Library Screen. Also: 0% is about no effect; nearly all actives have a fitted effect of over 55% in size. Conditions: yeast TDP-43 toxicity rescue, BacTiter-Glo growth, 24 h; series mostly up to 46.1 µM; growth rescue (activation): at the top concentration. Summed up:
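TDP-43-expressing yeast, pregrown in raffinose, seeded at OD600 0.02 in galactose medium with compound for 24 hr at 30 deg C. Growth read by BacTiter-Glo luminescence, so rescue of toxicity appears as activation.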
Regarding `Cc1cc(C(=O)N/N=C/c2c(C)nn(-c3ccccc3)c2C)n[nH]1`, the “growth rescue (activation)” value was inactive: 16.5%.
In the case of `COC(=O)CN(c1cc(Cl)ccc1OC)S(=O)(=O)c1ccc(C)cc1`, the “growth rescue (activation)” value was inactive: 12.8%.
As for `O=C(Nc1nnc(CCS(=O)(=O)c2ccc3ccccc3c2)s1)c1ccc([N+](=O)[O-])cc1`, the figure is inactive: -13%; as for `COc1ccc(N(CC(=O)N/N=C/c2ccccc2OC)S(=O)(=O)c2ccccc2)cc1`, inactive: 1.93%; as for `Cc1ccc(C(=O)N/C(=C/c2ccccc2)C(=O)NC(Cc2ccccc2)C(=O)O)cc1` (stereo not drawn), inactive: 6.43%.
As for `COc1ccc(CCNc2nc(C)c(C(C)=O)s2)cc1OC`, the figure is inactive: 17.5%; as for `Cc1cc([N+](=O)[O-])nn1CC(=O)N(C)C1CCCCC1`, inactive: 2.11%.
For `COc1ccc(CNC(=O)CN2CCN(c3cccc(C)c3C)CC2)cc1`, the “growth rescue (activation)” value is inactive: 8.53%.
`CC1(C(=O)NS(=O)(=O)c2ccc(C#N)cc2)CCN1C(=O)C1(c2ccccc2)CCCC1` (stereo not drawn): the “growth rescue (activation)” value is inactive: 3.31%.
As for `N#Cc1ccccc1NC(=O)COC(=O)CN1C(=O)C2CCCCC2C1=O` (stereo not drawn), the figure is inactive: -8.58%.
For `N#Cc1ccccc1NC(=O)Nc1cccs1`, the “growth rescue (activation)” value was inactive: 14.6%.
As for `Cc1ccc(OCCn2cc(C(=O)O)c3ccccc32)cc1`, the figure is inactive: -18.8%; as for `CC(C)CN(CC(C)C)C(=O)Nc1ccccc1F`, inactive: 2.14%.
As for `O=C(NC(Cc1ccccc1)C(=O)O)/C(=C/c1cccc([N+](=O)[O-])c1)NC(=O)c1ccco1` (stereo not drawn), the figure is inactive: -0.768%; as for `O=[N+]([O-])c1ncccc1OCc1ccc(Br)cc1F`, inactive: 10.2%; as for `Cc1nc2c(cc1C(=O)N/N=C/c1ccc([N+](=O)[O-])cc1)c(=O)n(C)c(=O)n2C`, inactive: 1.99%.
As for `COc1c(C)cc(C(=O)C2CCCN(C(=O)c3cc(C)nc(C)n3)C2)cc1C` (stereo not drawn), the figure is inactive: -6.18%; as for `O=C(Nc1sc2c(c1C(=O)O)CCC2)c1cccc(Cl)c1`, inactive: -0.484%; as for `CCN(CC)S(=O)(=O)c1cc(C(=O)OCC(=O)Nc2ccc(-c3nc4ccc(C)cc4s3)cc2)ccc1F`, inactive: 16.7%.
Regarding `CNc1ncnc2c1ncn2[C@H]1CN(Cc2cccnc2)C[C@@H](CO)O1`, the “growth rescue (activation)” value was inactive: -0.757%.
As for `O=C(COC(=O)/C=C/c1ccc(F)cc1)NC1CCCC1`, the figure is inactive: 18.4%.
As for `CCOc1ccc(S(=O)(=O)n2cnc3ccccc32)cc1`, the figure is inactive: 0.191%; as for `CCc1nn(CC(=O)NCc2cccc(OC)c2OC)c(=O)c2cc3occc3n12`, inactive: -0.408%; as for `CCOC(=O)C1(C)CCCN(C(=O)c2ccc(OC)cc2OC)C1` (stereo not drawn), inactive: -0.157%.
As for `O=C(O)c1ccccc1-c1ccccc1C(=O)Nc1cccc(-c2nc3ccccc3o2)c1`, the figure is inactive: -8.72%.
Consider `COC(=O)c1c(NC(NC(=O)C(C)C)C(Cl)(Cl)Cl)sc2c1CCC2` (stereo not drawn), for which the “growth rescue (activation)” value was inactive: -22.5%.
As for `CCCCC(=O)N(C)c1c(C)nc2ccc(C(=O)Nc3cccc(OC)c3)cn12`, the figure is inactive: -1.86%.
Take `CN(c1ccc(C(=O)N2CCN(c3ccccc3F)CC2)cc1)S(=O)(=O)c1ccccc1`: the “growth rescue (activation)” value is inactive: 28.5%.
As for `COc1ccc(-n2c(SCC(=O)NCC3CCCO3)nc3c([nH]c4ccccc43)c2=O)cc1` (stereo not drawn), the figure is inactive: -3.23%; as for `Cc1cccn2c(=O)c3cc(C(=O)N4COCC4(C)C)n(Cc4ccccc4)c3nc12`, inactive: -3.69%; as for `CCOC(=O)c1sc(NC(=O)CSc2nncn2C)nc1C`, inactive: 12.5%.
As for `N#CCSc1nc(-c2ccccc2)c2cc(Cl)ccc2n1`, the figure is inactive: 3.94%; as for `Fc1ccccc1-c1nc(NC2CCCC2)c2ccccc2n1`, inactive: -1.57%; as for `COc1ccc(C(OC(=O)c2ccco2)C(=O)NC2CCCC2)cc1OC` (stereo not drawn), inactive: -0.0762%.
As for `COC(=O)c1ccc(OC)c(CN2CCCN(Cc3cc(C)ccc3C)S2(=O)=O)c1`, the “growth rescue (activation)” value was inactive: 6.33%.
As for `C=C1N(c2cccc(Cl)c2)C(=O)OC1(C)C`, the figure is inactive: 6.26%; as for `C/C(=N\OCc1ccc(C#N)cc1)c1cc2ccccc2o1`, inactive: 13.1%.
As for `CC(=O)Nc1ccc(NC(=O)COc2ccc(S(=O)(=O)N3CCCC3)cc2)cc1`, the figure is inactive: 7.05%; as for `COc1ccc(/C=C2/C(=O)C(C)(C(C)C)CCC2C)cc1` (stereo not drawn), inactive: 2.38%; as for `CC(C)n1cc(/C=N/Nc2ccc(C(=O)O)cc2)c2ccccc21`, inactive: 19.6%.
As for `COc1ccc(NC(=S)N2CCCCC2c2cccnc2)cc1` (stereo not drawn), the figure is inactive: 6.7%; as for `COc1ccc(Cl)cc1N(C(C)C(=O)NC1CCCC1)S(C)(=O)=O` (stereo not drawn), inactive: 1.97%.
Consider `CCN(CC)C(=S)SCC(=O)c1c(C)[nH]c2ccccc12`, for which the “growth rescue (activation)” value was inactive: -1.71%.
As for `COCCNC(=O)C(OC(=O)c1nsc(Cl)c1Cl)C(C)C` (stereo not drawn), the figure is inactive: 1.41%; as for `CN(C)CCCNC(=O)/C(=C\C=C\c1ccccc1)NC(=O)c1ccc([N+](=O)[O-])cc1`, inactive: -2.87%.
Turning to `O=C(CSc1ccc2ccccc2c1Br)Nc1cccc(S(=O)(=O)NC2=NCCCCC2)c1`, the “growth rescue (activation)” value was inactive: 3.87%.
As for `Cc1ccc(C)c(NC(=O)C(OC(=O)c2ccc(CO)cc2)c2ccccc2)c1` (stereo not drawn), the figure is inactive: -10.5%.
As for `CCCSc1oc(-c2ccco2)nc1S(=O)(=O)c1ccc(C)cc1`, the figure is inactive: -0.0984%.
As for `CC(C)Oc1ccc(C(=O)NCCNC(=O)c2ccco2)cc1`, the figure is inactive: 15%.
In the case of `Cc1ccc(NC(=O)N2CCC(NC(=O)c3cccc(C)c3)CC2)cc1`, the “growth rescue (activation)” value is inactive: 5.3%.
As for `CCN(CC)CCN1C(=O)C(O)=C(C(=O)c2cc3cccc(OC)c3o2)C1c1cccs1` (stereo not drawn), the figure is inactive: -1.03%; as for `CCCC(=O)Nc1ccc(-c2csc(NNC(C)=O)n2)cc1`, inactive: -17.8%; as for `Cc1ccc(S(=O)(=O)N2c3ccc(S(N)(=O)=O)cc3CC2C)cc1` (stereo not drawn), inactive: -2.08%.
